Laboratory results as given in paper doi:10.1101/2023.05.22.541714 (bioRxiv, 2023).

Molecular target: the molecule itself
Experiment: cryo-EM structure

B1: human vimentin ΔT ([…]) (domain or fragment)
chain: not shown
binding result: binds
